# Screen size: about 310,000 compounds; about 2,200 (0.71%) showed an effect of 50% or more. Effects have a minus sign here. Some of the results follow.
# Molecular target: human ether-à-go-go-related gene (hERG) potassium channel (human, UniProt Q12809)
# Test: primary screen, population patch clamp on CHO cells stably expressing hERG
# human ether-à-go-go-related gene (hERG) potassium channel, sequence (Q12809 whole entry, looked up): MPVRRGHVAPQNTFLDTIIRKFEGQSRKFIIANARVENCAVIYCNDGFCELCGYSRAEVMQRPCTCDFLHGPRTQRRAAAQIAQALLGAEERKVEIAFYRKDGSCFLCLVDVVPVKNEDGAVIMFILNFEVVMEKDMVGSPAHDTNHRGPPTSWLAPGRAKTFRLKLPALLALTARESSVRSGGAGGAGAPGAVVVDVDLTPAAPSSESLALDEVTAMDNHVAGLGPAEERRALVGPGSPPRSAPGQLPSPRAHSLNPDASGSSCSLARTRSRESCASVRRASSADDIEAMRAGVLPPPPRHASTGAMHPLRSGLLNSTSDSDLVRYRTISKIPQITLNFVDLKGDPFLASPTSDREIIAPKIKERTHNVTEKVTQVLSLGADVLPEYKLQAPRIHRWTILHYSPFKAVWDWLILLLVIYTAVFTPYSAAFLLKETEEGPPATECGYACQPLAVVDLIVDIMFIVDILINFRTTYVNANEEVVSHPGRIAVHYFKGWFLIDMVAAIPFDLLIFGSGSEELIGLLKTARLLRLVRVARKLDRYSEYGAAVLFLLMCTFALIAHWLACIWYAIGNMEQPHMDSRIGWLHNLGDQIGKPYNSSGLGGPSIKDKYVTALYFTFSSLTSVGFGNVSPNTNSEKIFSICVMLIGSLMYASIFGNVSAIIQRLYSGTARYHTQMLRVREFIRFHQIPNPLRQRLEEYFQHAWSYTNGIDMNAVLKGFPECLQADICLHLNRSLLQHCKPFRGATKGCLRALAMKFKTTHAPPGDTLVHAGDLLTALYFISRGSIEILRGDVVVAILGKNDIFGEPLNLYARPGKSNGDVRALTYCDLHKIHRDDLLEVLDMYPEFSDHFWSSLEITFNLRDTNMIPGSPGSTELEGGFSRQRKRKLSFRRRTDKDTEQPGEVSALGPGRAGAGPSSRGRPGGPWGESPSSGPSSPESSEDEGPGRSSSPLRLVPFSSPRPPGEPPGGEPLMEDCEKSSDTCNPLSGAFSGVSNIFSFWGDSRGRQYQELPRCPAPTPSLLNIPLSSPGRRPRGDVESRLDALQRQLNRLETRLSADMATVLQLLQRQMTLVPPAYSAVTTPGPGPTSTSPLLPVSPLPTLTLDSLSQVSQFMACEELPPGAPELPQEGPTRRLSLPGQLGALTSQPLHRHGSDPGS
row,SMILES,"hERG current change (%, negative = inhibition) at 1uM"
1,CN1CC2([N+](=O)[O-])CC=C(Oc3ccccc3)C([N+](=O)[O-])(C1)C2 (stereo not shown),10.6%
2,O=C(CSc1nnc(C2COc3ccccc3O2)o1)N1CCN(c2ccccc2)CC1 (stereo not shown),6.45%
3,COc1ccc(NC(=O)CSc2nc3[nH]ncc3c(=O)[nH]2)cc1OC,13.9%
4,O=C(c1cc2ccccc2o1)N(Cc1ccco1)Cc1cccs1,4.67%
5,COc1ccccc1CCN1CCCC(CN(C)CC(C)(C)CO)C1 (stereo not shown),13.6%
6,COCCNC(=S)N/N=C(\C)c1ccc(C)c([N+](=O)[O-])c1,7.07%
7,Cn1c(N)c(C(=O)COC(=O)C2CCN(S(=O)(=O)c3cccs3)CC2)c(=O)n(C)c1=O,1.91%
8,Nc1nnc(Cc2ccc(Cl)cc2)s1,1.75%
9,Cc1ccc(Cn2cccc2/C=N/NC(=S)Nc2ccc(C)cc2)cc1,6.19%
10,COc1ccc2[nH]c(=O)c(CN(C(=O)c3ccncc3)C(C)(C)C)cc2c1,9.31%
11,O=C(Oc1nsnc1N1CCCCC1)N1CCOCC1,17.9%
12,O=C(Nc1ccccc1N1CCOCC1)C1(c2ccc(Cl)cc2)CCC1,14.7%
13,CC(C)Cc1cc(C(=O)N2N=C(C(F)F)CC2(O)C(F)F)c2ccccc2n1 (stereo not shown),-1.33%
14,Cc1cccc(-n2nc(C)cc2N)c1,13.1%
15,CCCN1CCC(NC(=S)Nc2ccc(OC)c(OC)c2)CC1,12.1%
16,NC(=O)C(NC(=O)OCc1ccccc1)c1ccccc1 (stereo not shown),-0.655%
17,CNC(=O)c1cc(OCC(F)(F)F)ccc1OCC(F)(F)F,2.06%
18,CCc1cc2c(N[C@@H](Cc3c[nH]c4ccccc34)C(=O)O)ncnc2s1,14.5%
19,CCOc1ccc(NC(=O)COC(=O)c2ncc(Cl)c(Cl)c2Cl)cc1,10.2%
20,Cc1ccc(NC(=O)c2sc3ncn(CC(=O)N4CCN(c5ccccn5)CC4)c(=O)c3c2C)cc1F,-7.49%
21,CCOC(=O)N/N=C\c1ccc(-c2cc(Cl)ccc2Cl)o1,0.0486%
22,CC(C)Sc1nc2[nH]ncc2c(=O)[nH]1,6.82%

row,SMILES,"hERG current change (%, negative = inhibition) at 1uM"
1,CCOC(=O)C1(C/C(C)=N/NC(N)=O)CC(C)OC1=O (stereo not shown),10.5%
2,CCn1cc(C(=O)NCc2ccccn2)c(=O)c2cc(F)c(N3CCN(C)CC3)cc21,7.54%
3,Cc1nn(CC(=O)N(C)Cc2ccc(F)cc2)c(C)c1[N+](=O)[O-],5.72%
4,COc1ccc(Cl)cc1NC(=O)COC(=O)CCc1cc(OC)c(OC)c(OC)c1,11.7%
5,N#CCCn1cc(C(=O)Nc2ccc(C(=O)O)cc2)c(-c2cccc(Br)c2)n1,16.5%
6,CCC(c1nnnn1C(C)(C)CC)N(CCN1CCOCC1)Cc1cc2cc(C)ccc2[nH]c1=O (stereo not shown),10.7%
7,Cc1ccc(-c2cc(C(=O)N/N=C\c3cnn(C)c3C)c3ccccc3n2)cc1C,1.51%
8,CCCCn1c(Nc2ccc(OC)cc2)nc2ccccc21,14%
9,O=C(CSc1nnnn1C1CCCC1)c1ccc2c(c1)OCCO2,13.8%
10,Cc1cnc(CN(C)C(=O)c2ccc3oc(Cc4ccc(Cl)cc4)nc3c2)[nH]1,-5.24%
11,Cc1ccc(N(C(=O)c2snc(C(N)=O)c2N)C(C(=O)NCCC(C)C)c2ccco2)cc1 (stereo not shown),-8.79%
12,CCCCNC(=O)Cc1ccc(C)cc1,16.7%
13,O=C(Nc1cccc(Cl)c1)N(CCN1CCOCC1)Cc1ccccc1F,-1.78%
14,N#Cc1nc(-c2ccco2)oc1N1CCN(C(c2ccccc2)c2ccccc2)CC1,5.8%
15,O=C(CSc1nnnn1-c1ccccc1)Nc1nsc(-c2ccc(Cl)cc2)n1,18.7%
16,O=C(c1ccc(S(=O)(=O)N2CCOCC2)cc1)N(c1cccc(Cl)c1)C1C=CS(=O)(=O)C1 (stereo not shown),14.4%
17,CCN(CC(=O)Nc1cc(Cl)ccc1C)C(=O)c1cc([N+](=O)[O-])ccc1N1CCOCC1,10.8%
18,CC(C)(C)c1cc(C(=O)NN)n(Cc2ccc(F)cc2)n1,1.62%
19,C=CCCN(C1CCCC1)S(=O)(=O)c1ccccc1Br,15.6%
20,CCCCNC(=S)NCCN1CCCCC1.O=C(O)C(=O)O,3.72%
21,COc1cccc(CNS(=O)(=O)c2ccc3c(c2)CC(C)N3C(=O)C2CC2)c1 (stereo not shown),13%
22,O=S(=O)(Nc1nc(-c2ccccc2)cs1)c1cc(Cl)ccc1Cl,15.4%

row,SMILES,"hERG current change (%, negative = inhibition) at 1uM"
1,CCC(C)C(NC=C1C(=O)OC(C)(C)OC1=O)C(=O)O (stereo not shown),-0.226%
2,COc1ccc(-n2ccc3ccccc32)cc1,11.1%
3,CCCCOC(=O)Nc1nnc(-c2ccccc2OC)s1,12.2%
4,O=C(Cc1nc2ccccc2[nH]1)c1ccc(Br)cc1,10.6%
5,C=CCN1C(=O)c2ccc(C(=O)N(C)CC(=O)Nc3ccccc3C(F)(F)F)cc2C1=O,5.61%
6,CCCCn1c(O)c(C(C)=NCc2ccc(F)cc2)c(=O)[nH]c1=O,16.9%
7,CN1C(=O)CC(c2ccccc2)C1=O (stereo not shown),12.5%
8,CC1CCN(C(=O)c2ccc(NC(=O)C3CCCO3)cc2)CC1 (stereo not shown),12%
9,O=C(NN1C(=O)C2C(c3ccccc3)C=CC(c3ccccc3)C2C1=O)c1cccc(Br)c1 (stereo not shown),14%
10,COC(=O)C(NC(C)=O)(Nc1ccc(C)cn1)C(F)(F)F (stereo not shown),21.1%
11,Cc1cc(C)cc(NC(=S)NCc2cccnc2)c1,-2.42%
12,CCC(=O)N1c2ccc(S(=O)(=O)N(CCO)Cc3ccccc3)cc2CC1C (stereo not shown),-2.82%
13,COc1ccc(OCc2n[nH]c(=S)o2)cc1,5.46%
14,NC(=O)C1CCN(C(=O)C2CCC(=O)N(C3CCCCCC3)C2)CC1 (stereo not shown),7.15%
15,O=C(N/N=C/c1c[nH]c2ccccc12)c1cc(-c2ccc(-c3ccccc3)cc2)n[nH]1,12%
16,Cc1ccc2ccc[n+](Cc3ccccc3)c2c1.[Br-],5.61%
17,CN1C(=O)c2cccc3c(S(=O)(=O)NCc4ccco4)ccc1c23,-20%
18,CCOc1ccc(C(C)(N)C(=O)O)cc1 (stereo not shown),-1.32%
19,CC(C)c1ccc(-c2nn[nH]n2)cc1,10.2%
20,C#CCOCCOCCOCCNc1nc(N2CCN(C(=O)CCCCCCCCCCNC(=O)[C@@H](CCC(=O)O)n3cc(CCCCCN)nn3)CC2)nc(N2CCN(C(=O)CCCCCCCCCCNC(=O)[C@H](CO)n3cc(CCCCCN)nn3)CC2)n1,7.08%
21,CC(C)Oc1ccc(C(=O)Nc2ccc(N3CCCCC3)cc2)cc1,11.3%
22,CC12CN3CCN(CC(C3)/C1=N/N=C/c1cccc([N+](=O)[O-])c1)C2,12.2%

row,SMILES,"hERG current change (%, negative = inhibition) at 1uM"
1,COCCn1c(CN2CCC(Cc3ccccc3)CC2)nc2c1c(=O)n(C)c(=O)n2C,-3.7%
2,CCCN(CCC)C(=O)NC1CC(=O)N(c2ccc(OC)cc2)C1 (stereo not shown),9.05%
3,Cc1cc(=O)[nH]c(SCC(=O)c2ccc(F)c(C)c2)n1,11.9%
4,COc1cccc(C(=O)Nn2cnnc2)c1,14.2%
5,CC1(C)Cc2c(cnn2-c2ccc(F)cc2)C(NC(=O)CCn2cncn2)C1 (stereo not shown),-40.7%
6,CCCS(=O)(=O)N1CCN(Cc2ccccc2[N+](=O)[O-])CC1.O=C(O)C(=O)O,3.36%
7,COc1ccccc1C(=O)NNC(=O)c1ccccc1F,8.36%
8,Clc1ccc(OCc2nnc3n2N=C(c2ccc4c(c2)OCCO4)CS3)c(Cl)c1,10.5%
9,Cn1c(Cn2c(=O)sc3ccccc32)nnc1SCc1ccc(F)cc1,-9.62%
10,COC(=O)CSc1nc(C)cc(Oc2ccccc2)n1,7.59%
11,Cc1ccc(C)c(N2CCN(S(=O)(=O)c3ccc4c(c3)CC(C)N4C(=O)C3CC3)CC2)c1 (stereo not shown),15.5%
12,COc1ccc(CNC(=O)COC(=O)c2ccc(OCC3CCCO3)cc2)cc1 (stereo not shown),8.5%
13,CN(C)S(=O)(=O)c1ccc(N2CCCC2)c(C(=O)N2CCN(S(=O)(=O)c3cccc(F)c3)CC2)c1,18.1%
14,CC(C)(C)CN1CCNC(=O)C1CC(=O)NCCc1ccccc1F (stereo not shown),2.89%
15,Nc1c(C(=O)Nc2ccc3c(c2)OCCO3)nnn1Cc1cccc(F)c1,6.29%
16,CC(C)(C)NC(=O)CSc1ncnc2c1nnn2Cc1ccccc1Cl,6.84%
17,COc1cc2c(cc1NC(=O)COc1ccccc1OC)oc1ccccc12,6.52%
18,Cc1oc2ccc(OC(C(=O)O)c3ccccc3)cc2c1C(=O)O (stereo not shown),6.15%
19,Cc1ccc(CNC(=O)CSc2nc(C)cs2)cc1,6.56%
20,COc1ccc(N(CC(=O)N2CCc3ccccc3C2)S(=O)(=O)c2ccccc2)cc1,3.33%
21,CCOC(=O)c1c2c(n(C)c1COC)C(=O)C(=O)c1ccc(Br)cc1-2,8.94%
22,O=C(Nc1cc(Cl)ccc1N1CCCC1)C1=NN(c2ccccc2)C(=O)CC1,17%
